Where “and” joins values, the source holds several entries; their conditions need not be identical. Equal values may be shown once. This list was built around the results that the source calls inconclusive (neither active nor inactive); the mix of calls is not that of the screen. For some of these results: A potency beside an inconclusive call is a rough fit, not a confirmed value. A structure can be active in one record and inactive in another. Calls of active or inactive are those of the source. Unless noted, calls follow the shape of the dose curve; as a rule, active = well fitted curve in the direction sought with a large enough effect in the repeat runs; inconclusive = weak or mixed curves; inactive = no such curve, though single readings can be large; an effect the other way counts as inactive or inconclusive.
Legend:
[1] = qHTS assay for small molecule agonists of the p53 signaling pathway (AID 651631; calls by dose curve; also: nearly all actives have a fitted effect of over 15% in size); details: HCT-116 p53RE-bla reporter, beta-lactamase FRET ratio, 16 h; activation: at 73.3 µM (top of the series) unless noted
Outline: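 Quantitative high-throughput format: 4,000 p53RE-bla HCT-116 cells/well, 5 h pre-incubation, 16 h compound exposure at 37 °C, 2 h room-temperature substrate step, fluorescence intensity measured.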

[2] = qHTS assay for small molecules that induce genotoxicity in human embryonic kidney cells expressing luciferase-tagged ATAD5 (AID 651632); also: nearly all actives have a fitted effect of over 15% in size
Outline: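 ATAD5-luc HEK293T, 2,000 cells/well; cpd or DMSO pin-transferred; 16 hr, 37C/5% CO2; Amplite 30 min RT; luminescence.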

[3] = qHTS assay for small molecule disruptors of the mitochondrial membrane potential (AID 720635); details: HepG2 mitochondrial membrane potential, Mito-MPS dye ratio; ratio activity, negative = MMP loss: at 83.2 µM (top of the series) unless noted; as to ratio activity, negative = MMP loss: % is scaled to controls: 0 for no effect and ±100 for the full control effect
Outline: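 HepG2 cells exposed to compound 1 hr at 37C, then Mito-MPS dye 30 min. Ratio read of aggregate (540/590 nm) versus monomer (490/535 nm) fluorescence.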

[4] = target: Glucocorticoid receptor (Homo sapiens) (UniProt P04150); test: qHTS assay to identify small molecule antagonists of the glucocorticoid receptor (GR) signaling pathway (AID 720692; active = well fitted inhibition curve with a large enough effect in the signal ratio in the repeat runs, not every such curve was filed as active; inconclusive = weak or mixed curves, or effect the other way; inactive = no such curve, though single readings can be large or run the other way; the % refers to the signal ratio); details: GR-bla HeLa, beta-lactamase FRET ratio, dexamethasone-stimulated, 18 h; activity change, negative = inhibition: at 58.5 µM (top of the series) unless noted
Chain of UniProt P04150 (P04150 whole entry, looked up): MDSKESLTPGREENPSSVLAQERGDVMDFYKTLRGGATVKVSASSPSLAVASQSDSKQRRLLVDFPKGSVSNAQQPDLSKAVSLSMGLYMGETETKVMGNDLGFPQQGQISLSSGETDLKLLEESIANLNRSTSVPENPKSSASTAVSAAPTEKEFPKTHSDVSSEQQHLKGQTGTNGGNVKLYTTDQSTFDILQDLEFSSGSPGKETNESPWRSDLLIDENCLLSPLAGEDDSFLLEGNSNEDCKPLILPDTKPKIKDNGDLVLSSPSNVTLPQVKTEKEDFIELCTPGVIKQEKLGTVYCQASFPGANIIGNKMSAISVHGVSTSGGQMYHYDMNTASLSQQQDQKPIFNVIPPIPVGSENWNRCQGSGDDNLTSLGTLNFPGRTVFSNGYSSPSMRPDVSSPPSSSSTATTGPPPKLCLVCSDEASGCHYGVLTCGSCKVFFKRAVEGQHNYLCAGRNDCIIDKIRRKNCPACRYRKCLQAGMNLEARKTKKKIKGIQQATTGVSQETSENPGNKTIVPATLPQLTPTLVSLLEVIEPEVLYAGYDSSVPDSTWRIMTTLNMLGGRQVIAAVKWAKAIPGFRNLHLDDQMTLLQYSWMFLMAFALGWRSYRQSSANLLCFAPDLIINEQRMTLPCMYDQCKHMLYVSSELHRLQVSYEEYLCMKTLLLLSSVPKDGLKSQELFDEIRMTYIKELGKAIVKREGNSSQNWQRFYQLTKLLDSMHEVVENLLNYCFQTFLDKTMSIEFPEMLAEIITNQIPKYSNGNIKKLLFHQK
Outline: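 HeLa GR-bla cells; cmpd + dex 5 nM final, 18 h 37 C; LiveBLAzer B/G FRET substrate 2 h RT; fluorescence intensity read. Antagonist mode, qHTS.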

[5] = qHTS assay for small molecule disruptors of the mitochondrial membrane potential - cell viability (AID 720634; calls by dose curve; also: nearly all actives have a fitted effect of over 20% in size)
Outline: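 Cells: HepG2, 2,000/well, attached overnight. Compound 1 hr, 37 C/5% CO2. +m-MPI dye, +CellTiter-Glo 30 min RT. Readout: luminescence (ATP).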

[6] = qHTS assay for identifying genotoxic compounds that show differential cytotoxicity against isogenic chicken DT40 cell lines with known DNA damage response pathways - wild type cell line (AID 743012); details: DT40 wild type chicken cells viability, CellTiter-Glo, 40 h; activity change, negative = cytotoxicity: at 68.4 µM (top of the series); also: nearly all actives have a fitted effect of over 60% in size
Outline: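 Wild type DT40, 300 cells/well, ~0.5 h settle at 37 C/5% CO2; compounds in DMSO added by pintool; 40 h at 37 C/5% CO2; CellTiter-Glo, 30 min RT; luminescence.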
Potency is read from the fitted curve at half-maximal effect; tags tell the direction and shape of the fitted curve or compound fluorescence and quenching.

SMILES | Potency [1] | Potency [2] | Potency [3] | Potency [4] | Potency [5] | ratio activity, negative = MMP loss [3] | Potency [6]
CC[C@]1(O)C[C@H]2CN(CCc3c([nH]c4ccccc34)[C@@](C(=O)OC)(c3cc4c(cc3OC)N(C=O)[C@H]3[C@@](O)(C(=O)OC)[C@H](OC(C)=O)[C@]5(CC)C=CCN6CC[C@]43[C@@H]65)C2)C1 | active: 8.4 nM | active: 0.75 µM | active: 3.76 µM | inconclusive: 213 nM [activator, full curve] | – | – | –
CCCCNS(=O)(=O)c1ccccc1 | inconclusive: 67700 nM [activator, single point] | inconclusive: 42.7 µM [activator, partial curve, poor fit] | active: 48.6 µM | inconclusive: 483 nM [activator, single point] | inconclusive: 61.1 µM [cytotoxic, partial curve, poor fit] | inconclusive: -36.7% | –
O=C(OC[C@H]1O[C@@H](OC(=O)c2cc(O)c(O)c(OC(=O)c3cc(O)c(O)c(O)c3)c2)[C@H](OC(=O)c2cc(O)c(O)c(OC(=O)c3cc(O)c(O)c(O)c3)c2)[C@@H](OC(=O)c2cc(O)c(O)c(OC(=O)c3cc(O)c(O)c(O)c3)c2)[C@@H]1OC(=O)c1cc(O)c(O)c(OC(=O)c2cc(O)c(O)c(O)c2)c1)c1cc(O)c(O)c(OC(=O)c2cc(O)c(O)c(O)c2)c1 | active: 2.66 µM and active: 10.4 µM | inconclusive: 6.68 µM [activator, partial curve] | active: 2.37 µM and inconclusive: 16.5 µM [fluorescent, partial curve, poor fit] | inconclusive: 9520 nM [cytotoxic] | active: 10.6 µM | – | active: 5.96 µM and inconclusive: 18.5 µM [cytotoxic]
